# The other results are listed elsewhere or left out.
# B1: HML-Native (Hypnea musciformis), P84871 (protein)
# chain: QKFCTLDIAPVCCQIVIGGGMYTAGNACMCEGFVSGVGRCENPKECPCTREAQIPSCCSSRWGLVSVTGKCACDCLGGTVAFPEPCPSPY
# Experiments:
# Assay in all cases: glycan array binding signal (z-score within array); higher = stronger binding
# Conditions in all cases: glycan notation: IUPAC condensed, linker removed
# [1] = molecular target: Gal(b1-4)GlcNAc(b1-3)Gal(b1-4)GlcNAc(b1-3)Gal(b1-4)GlcNAc(b1-3)Gal(b1-4)GlcNAc(b1-2)Man(a1-3)[Gal(b1-4)GlcNAc(b1-3)Gal(b1-4)GlcNAc(b1-3)Gal(b1-4)GlcNAc(b1-3)Gal(b1-4)GlcNAc(b1-2)Man(a1-6)]Man(b1-4)GlcNAc(b1-4)GlcNAc
# Method in brief: (§1)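 Glycan array data were curated from 3228 arrays in the Consortium for Functional Glycomics database and kept only where the protein sequence was available. Glycan names were converted to IUPAC-condensed notation, and columns mapping to the same glycan were averaged. The binding signal is a within-array Z-score, averaged across arrays of the same protein sequence at different concentrations or buffers and across linkers. Negative Z-scores can be read as non-binding.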
# [2] = molecular target: Gal(b1-4)GlcNAc(b1-3)Gal(b1-4)GlcNAc(b1-3)Gal(b1-4)GlcNAc(b1-3)Gal(b1-4)GlcNAc(b1-2)Man(a1-3)[Gal(b1-4)GlcNAc(b1-3)Gal(b1-4)GlcNAc(b1-3)Gal(b1-4)GlcNAc(b1-3)Gal(b1-4)GlcNAc(b1-2)Man(a1-6)]Man(b1-4)GlcNAc(b1-4)[Fuc(a1-6)]GlcNAc
# Method in brief: as §1
# [3] = molecular target: Gal(b1-4)GlcNAc(b1-3)Gal(b1-4)GlcNAc(b1-3)Gal(b1-4)GlcNAc(b1-3)Gal(b1-4)GlcNAc(b1-2)[Gal(b1-4)GlcNAc(b1-3)Gal(b1-4)GlcNAc(b1-3)Gal(b1-4)GlcNAc(b1-3)Gal(b1-4)GlcNAc(b1-6)]Man(a1-6)[Gal(b1-4)GlcNAc(b1-3)Gal(b1-4)GlcNAc(b1-3)Gal(b1-4)GlcNAc(b1-3)Gal(b1-4)GlcNAc(b1-2)Man(a1-3)]Man(b1-4)GlcNAc(b1-4)[Fuc(a1-6)]GlcNAc
# Method in brief: as §1
# [4] = molecular target: Gal(b1-4)GlcNAc(b1-3)Gal(b1-4)GlcNAc(b1-3)Gal(b1-4)GlcNAc(b1-3)Gal(b1-4)GlcNAc(b1-3)Gal(b1-4)GlcNAc(b1-2)Man(a1-3)[Gal(b1-4)GlcNAc(b1-3)Gal(b1-4)GlcNAc(b1-3)Gal(b1-4)GlcNAc(b1-3)Gal(b1-4)GlcNAc(b1-3)Gal(b1-4)GlcNAc(b1-2)Man(a1-6)]Man(b1-4)GlcNAc(b1-4)GlcNAc
# Method in brief: as §1
# [5] = molecular target: Gal(b1-4)GlcNAc(b1-3)Gal(b1-4)GlcNAc(b1-3)Gal(b1-4)GlcNAc(b1-3)Gal(b1-4)GlcNAc(b1-3)Gal(b1-4)GlcNAc(b1-2)Man(a1-3)[Gal(b1-4)GlcNAc(b1-3)Gal(b1-4)GlcNAc(b1-3)Gal(b1-4)GlcNAc(b1-3)Gal(b1-4)GlcNAc(b1-3)Gal(b1-4)GlcNAc(b1-2)Man(a1-6)]Man(b1-4)GlcNAc(b1-4)[Fuc(a1-6)]GlcNAc
# Method in brief: as §1
# [6] = molecular target: Gal(b1-4)GlcNAc(b1-3)Gal(b1-4)GlcNAc(b1-3)Gal(b1-4)GlcNAc(b1-3)Gal(b1-4)GlcNAc(b1-3)Gal(b1-4)GlcNAc(b1-2)[Gal(b1-4)GlcNAc(b1-3)Gal(b1-4)GlcNAc(b1-3)Gal(b1-4)GlcNAc(b1-3)Gal(b1-4)GlcNAc(b1-3)Gal(b1-4)GlcNAc(b1-6)]Man(a1-6)[Gal(b1-4)GlcNAc(b1-3)Gal(b1-4)GlcNAc(b1-3)Gal(b1-4)GlcNAc(b1-3)Gal(b1-4)GlcNAc(b1-3)Gal(b1-4)GlcNAc(b1-2)Man(a1-3)]Man(b1-4)GlcNAc(b1-4)[Fuc(a1-6)]GlcNAc
# Method in brief: as §1
# [7] = molecular target: Gal(b1-4)GlcNAc(b1-3)Gal(b1-4)GlcNAc(b1-3)Gal(b1-4)GlcNAc(b1-3)Gal(b1-4)GlcNAc(b1-3)Gal(b1-4)GlcNAc(b1-3)Gal(b1-4)GlcNAc(b1-2)Man(a1-3)[Gal(b1-4)GlcNAc(b1-3)Gal(b1-4)GlcNAc(b1-3)Gal(b1-4)GlcNAc(b1-3)Gal(b1-4)GlcNAc(b1-3)Gal(b1-4)GlcNAc(b1-3)Gal(b1-4)GlcNAc(b1-2)Man(a1-6)]Man(b1-4)GlcNAc(b1-4)GlcNAc
# Method in brief: as §1
# [8] = molecular target: Gal(b1-4)GlcNAc(b1-3)Gal(b1-4)GlcNAc(b1-3)GalNAc
# Method in brief: as §1
# [9] = molecular target: Gal(b1-4)GlcNAc(b1-3)Gal(b1-4)GlcNAc(b1-3)[Gal(b1-4)GlcNAc(b1-3)Gal(b1-4)GlcNAc(b1-6)]GalNAc
# Method in brief: as §1
# [10] = molecular target: Gal(b1-4)GlcNAc(b1-3)Gal(b1-4)GlcNAc(b1-6)[Gal(b1-3)]GalNAc
# Method in brief: as §1
# [11] = molecular target: Gal(b1-4)GlcNAc(b1-3)Gal(b1-4)[Fuc(a1-3)]GlcNAc(b1-3)Gal(b1-4)[Fuc(a1-3)]GlcNAc
# Method in brief: as §1
# [12] = molecular target: Gal(b1-4)GlcNAc(b1-3)GalNAc
# Method in brief: as §1
# [13] = molecular target: Gal(b1-4)GlcNAc(b1-3)[Fuc(a1-3)GlcNAc(b1-6)]Gal(b1-4)Glc
# Method in brief: as §1
# [14] = molecular target: Gal(b1-4)GlcNAc(b1-3)[Gal(b1-4)GlcNAc(b1-6)]Gal(b1-4)GlcNAc
# Method in brief: as §1
# [15] = molecular target: Gal(b1-4)GlcNAc(b1-3)[GlcNAc(b1-6)]Gal(b1-4)GlcNAc
# Method in brief: as §1
# [16] = molecular target: Gal(b1-4)GlcNAc(b1-6)Gal(b1-4)GlcNAc
# Method in brief: as §1
# [17] = molecular target: Gal(b1-4)GlcNAc(b1-6)GalNAc
# Method in brief: as §1
# [18] = molecular target: Gal(b1-4)GlcNAc(b1-6)[Gal(b1-3)]GalNAc
# Method in brief: as §1
# [19] = molecular target: Gal(b1-4)GlcNAc(b1-6)[Gal(b1-4)GlcNAc(b1-3)]GalNAc
# Method in brief: as §1
# Gal(b1-4)GlcNAc6P = molecular target: Gal(b1-4)GlcNAc6P
# Method in brief: as §1
# Gal(b1-6)Gal = molecular target: Gal(b1-6)Gal
# Method in brief: as §1
# Gal3S(b1-3)GalNAc = molecular target: Gal3S(b1-3)GalNAc
# Method in brief: as §1
# Gal3S(b1-3)GlcNAc = molecular target: Gal3S(b1-3)GlcNAc
# Method in brief: as §1
binder,measurement,setting,value
B1,glycan array binding signal (z-score),[1],-0.112
same,glycan array binding signal (z-score),[2],4.9
same,glycan array binding signal (z-score),[3],2.48
same,glycan array binding signal (z-score),[4],-0.175
same,glycan array binding signal (z-score),[5],4.8
same,glycan array binding signal (z-score),[6],2.48
same,glycan array binding signal (z-score),[7],-0.227
same,glycan array binding signal (z-score),[8],-0.257
same,glycan array binding signal (z-score),[9],-0.183
same,glycan array binding signal (z-score),[10],-0.192
same,glycan array binding signal (z-score),[11],-0.11
same,glycan array binding signal (z-score),[12],-0.254
same,glycan array binding signal (z-score),[13],-0.179
same,glycan array binding signal (z-score),[14],-0.199
same,glycan array binding signal (z-score),[15],-0.261
same,glycan array binding signal (z-score),[16],-0.225
same,glycan array binding signal (z-score),[17],-0.287
same,glycan array binding signal (z-score),[18],-0.24
same,glycan array binding signal (z-score),[19],-0.229
same,glycan array binding signal (z-score),Gal(b1-4)GlcNAc6P,-0.304
same,glycan array binding signal (z-score),Gal(b1-6)Gal,-0.191
same,glycan array binding signal (z-score),Gal3S(b1-3)GalNAc,-0.122
same,glycan array binding signal (z-score),Gal3S(b1-3)GlcNAc,-0.195

# — the supplement of paper PMC8728848
